# Source: PubChem BioAssay (NCI)
#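 Cultured in 96-well plates, cells were exposed to test compound for 48 hours across five concentrations. GI50: concentration for 50% inhibition of growth.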 The source holds more than one record for some entries. The other results are left out here. An entry can have further records. For some of these results: The values listed for one entry repeat one measurement in other runs, samples, wells, individuals or studies. Records carry a tag for their origin. Letters hold for one entry only.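 The concentration for full growth arrest is given as TGI.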 For some of these results: Records of one sample usually come from different ranges of test concentrations, which the source does not state; a value can be the end of its range.
# What was measured:
# Experiment in all cases: NCI tumour cell line growth inhibition, 48 h
# SF-539 CNS = test system: SF-539 CNS
# A498 renal = test system: A498 renal
# A549 NSCLC = test system: A549 NSCLC
# CAKI-1 renal = test system: CAKI-1 renal
# CCRF-CEM leukemia = test system: CCRF-CEM leukemia
# COLO 205 colon = test system: COLO 205 colon
# EKVX NSCLC = test system: EKVX NSCLC
# HCT-116 colon = test system: HCT-116 colon
# HOP-62 NSCLC = test system: HOP-62 NSCLC
# HT29 colon = test system: HT29 colon
# IGROV1 ovarian = test system: IGROV1 ovarian
# K-562 leukemia = test system: K-562 leukemia
# KM12 colon = test system: KM12 colon
# LOX IMVI melanoma = test system: LOX IMVI melanoma
# MALME-3M melanoma = test system: MALME-3M melanoma
# MCF7 breast = test system: MCF7 breast
# MOLT-4 leukemia = test system: MOLT-4 leukemia
# NCI-H226 lung = test system: NCI-H226 lung
# NCI-H23 lung = test system: NCI-H23 lung
# OVCAR-3 ovarian = test system: OVCAR-3 ovarian
# OVCAR-5 ovarian = test system: OVCAR-5 ovarian
# OVCAR-8 ovarian = test system: OVCAR-8 ovarian
# RPMI-8226 leukemia = test system: RPMI-8226 leukemia
# SF-268 CNS = test system: SF-268 CNS
# SF-295 CNS = test system: SF-295 CNS
# SK-MEL-2 melanoma = test system: SK-MEL-2 melanoma
# SK-MEL-28 melanoma = test system: SK-MEL-28 melanoma
# SK-MEL-5 melanoma = test system: SK-MEL-5 melanoma
# SK-OV-3 ovarian = test system: SK-OV-3 ovarian
# SN12C renal = test system: SN12C renal
# SNB-19 CNS = test system: SNB-19 CNS
# SNB-75 CNS = test system: SNB-75 CNS
# SW-620 colon = test system: SW-620 colon
# U251 CNS = test system: U251 CNS
# UACC-257 melanoma = test system: UACC-257 melanoma
# UACC-62 melanoma = test system: UACC-62 melanoma
# BT-549 breast = test system: BT-549 breast
smiles,measurement,setting,value
Nc1nc(N)c2nc(CNc3ccc(C(=O)NC(CCCCNC(=O)c4ccccc4C(=O)O)C(=O)O)cc3)cnc2n1 (stereo not drawn),TGI,SF-539 CNS,777 nM and > 100 µM
CCCCCC(O)C1C(=O)OC(C)C(O)/C=C/C=C/C=C/C=C/C=C(\C)C(O)C(O)C(O)CC(O)CC(O)CC(O)CC(O)CC1O (stereo not drawn),GI50,A498 renal,"> 100 µM [sample A, 1 test] and 1.58 µM [sample B, 1 test]"
same,TGI,A498 renal,"> 100 µM [sample A, 1 test] and 2.96 µM [sample B, 1 test]"
same,GI50,A549 NSCLC,"> 100 µM [sample A, 1 test] and 1.93 µM [sample B, mean of 2 tests]"
same,TGI,A549 NSCLC,"> 100 µM [sample A, 1 test] and 3.5 µM [sample B, mean of 2 tests]"
same,GI50,CAKI-1 renal,"> 100 µM [sample A, 1 test] and 1.2 µM [sample B, mean of 2 tests]"
same,TGI,CAKI-1 renal,"> 100 µM [sample A, 1 test] and 2.65 µM [sample B, mean of 2 tests]"
same,GI50,CCRF-CEM leukemia,"> 100 µM [sample A, 1 test] and 2.66 µM [sample B, 1 test]"
same,TGI,CCRF-CEM leukemia,"> 100 µM [sample A, 1 test] and 8.93 µM [sample B, 1 test]"
same,GI50,COLO 205 colon,"> 100 µM [sample A, 1 test] and 1.46 µM [sample B, mean of 2 tests]"
same,TGI,COLO 205 colon,"> 100 µM [sample A, 1 test] and 2.97 µM [sample B, mean of 2 tests]"
same,GI50,EKVX NSCLC,"> 100 µM [sample A, 1 test] and 1.89 µM [sample B, 1 test]"
same,TGI,EKVX NSCLC,"> 100 µM [sample A, 1 test] and 3.48 µM [sample B, 1 test]"
same,GI50,HCT-116 colon,"> 100 µM [sample A, 1 test] and 992 nM [sample B, mean of 2 tests]"
same,TGI,HCT-116 colon,"> 100 µM [sample A, 1 test] and 2.62 µM [sample B, mean of 2 tests]"
same,GI50,HOP-62 NSCLC,"> 100 µM [sample A, 1 test] and 1.73 µM [sample B, 1 test]"
same,TGI,HOP-62 NSCLC,"> 100 µM [sample A, 1 test] and 3.31 µM [sample B, 1 test]"
same,GI50,HT29 colon,"> 100 µM [sample A, 1 test] and 1.39 µM [sample B, mean of 2 tests]"
same,TGI,HT29 colon,"> 100 µM [sample A, 1 test] and 2.82 µM [sample B, mean of 2 tests]"
same,GI50,IGROV1 ovarian,"> 100 µM [sample A, 1 test] and 2.11 µM [sample B, mean of 2 tests]"
same,TGI,IGROV1 ovarian,"> 100 µM [sample A, 1 test] and 4.56 µM [sample B, mean of 2 tests]"
same,GI50,K-562 leukemia,"> 100 µM [sample A, 1 test] and 1.43 µM [sample B, 1 test]"
same,TGI,K-562 leukemia,"> 100 µM [sample A, 1 test] and 3.26 µM [sample B, 1 test]"
same,TGI,KM12 colon,"40.7 µM [sample A, 1 test] and 3.39 µM [sample B, mean of 2 tests]"
same,GI50,LOX IMVI melanoma,"> 100 µM [sample A, 1 test] and 1.25 µM [sample B, mean of 2 tests]"
same,TGI,LOX IMVI melanoma,"> 100 µM [sample A, 1 test] and 2.77 µM [sample B, mean of 2 tests]"
same,GI50,MALME-3M melanoma,"> 100 µM [sample A, 1 test] and 1.56 µM [sample B, 1 test]"
same,TGI,MALME-3M melanoma,"> 100 µM [sample A, 1 test] and 3.05 µM [sample B, 1 test]"
same,GI50,MCF7 breast,"> 100 µM [sample A, 1 test] and 1.47 µM [sample B, mean of 2 tests]"
same,TGI,MCF7 breast,"> 100 µM [sample A, 1 test] and 2.9 µM [sample B, mean of 2 tests]"
same,GI50,MOLT-4 leukemia,"> 100 µM [sample A, 1 test] and 2.31 µM [sample B, mean of 2 tests]"
same,TGI,MOLT-4 leukemia,"> 100 µM [sample A, 1 test] and 5.29 µM [sample B, mean of 2 tests]"
same,GI50,NCI-H226 lung,"> 100 µM [sample A, 1 test] and 1.63 µM [sample B, 1 test]"
same,TGI,NCI-H226 lung,"> 100 µM [sample A, 1 test] and 3.18 µM [sample B, 1 test]"
same,GI50,NCI-H23 lung,"> 100 µM [sample A, 1 test] and 1.74 µM [sample B, mean of 2 tests]"
same,TGI,NCI-H23 lung,"> 100 µM [sample A, 1 test] and 3.26 µM [sample B, mean of 2 tests]"
same,GI50,OVCAR-3 ovarian,"> 100 µM [sample A, 1 test] and 1.73 µM [sample B, mean of 2 tests]"
same,TGI,OVCAR-3 ovarian,"> 100 µM [sample A, 1 test] and 3.3 µM [sample B, mean of 2 tests]"
same,GI50,OVCAR-5 ovarian,"> 100 µM [sample A, 1 test] and 2.43 µM [sample B, mean of 2 tests]"
same,TGI,OVCAR-5 ovarian,"> 100 µM [sample A, 1 test] and 5.74 µM [sample B, mean of 2 tests]"
same,GI50,OVCAR-8 ovarian,"> 100 µM [sample A, 1 test] and 1.52 µM [sample B, mean of 2 tests]"
same,TGI,OVCAR-8 ovarian,"> 100 µM [sample A, 1 test] and 3.24 µM [sample B, mean of 2 tests]"
same,GI50,RPMI-8226 leukemia,"> 100 µM [sample A, 1 test] and 2.11 µM [sample B, mean of 2 tests]"
same,TGI,RPMI-8226 leukemia,"> 100 µM [sample A, 1 test] and 6.83 µM [sample B, mean of 2 tests]"
same,GI50,SF-268 CNS,"> 100 µM [sample A, 1 test] and 1.64 µM [sample B, mean of 2 tests]"
same,TGI,SF-268 CNS,"> 100 µM [sample A, 1 test] and 3.65 µM [sample B, mean of 2 tests]"
same,GI50,SF-295 CNS,"> 100 µM [sample A, 1 test] and 1.5 µM [sample B, mean of 2 tests]"
same,TGI,SF-295 CNS,"> 100 µM [sample A, 1 test] and 2.86 µM [sample B, mean of 2 tests]"
same,GI50,SF-539 CNS,"> 100 µM [sample A, 1 test] and 1.74 µM [sample B, mean of 2 tests]"
same,TGI,SF-539 CNS,"> 100 µM [sample A, 1 test] and 3.27 µM [sample B, mean of 2 tests]"
same,GI50,SK-MEL-2 melanoma,"> 100 µM [sample A, 1 test] and 1.61 µM [sample B, mean of 2 tests]"
same,TGI,SK-MEL-2 melanoma,"> 100 µM [sample A, 1 test] and 3.03 µM [sample B, mean of 2 tests]"
same,GI50,SK-MEL-28 melanoma,"> 100 µM [sample A, 1 test] and 1.75 µM [sample B, mean of 2 tests]"
same,TGI,SK-MEL-28 melanoma,"> 100 µM [sample A, 1 test] and 3.27 µM [sample B, mean of 2 tests]"
same,GI50,SK-MEL-5 melanoma,"> 100 µM [sample A, 1 test] and 2.11 µM [sample B, mean of 2 tests]"
same,TGI,SK-MEL-5 melanoma,"> 100 µM [sample A, 1 test] and 4.17 µM [sample B, mean of 2 tests]"
same,GI50,SK-OV-3 ovarian,"> 100 µM [sample A, 1 test] and 1.95 µM [sample B, mean of 2 tests]"
same,TGI,SK-OV-3 ovarian,"> 100 µM [sample A, 1 test] and 3.67 µM [sample B, mean of 2 tests]"
same,GI50,SN12C renal,"> 100 µM [sample A, 1 test] and 1.71 µM [sample B, mean of 2 tests]"
same,TGI,SN12C renal,"> 100 µM [sample A, 1 test] and 3.24 µM [sample B, mean of 2 tests]"
same,GI50,SNB-19 CNS,"> 100 µM [sample A, 1 test] and 1.59 µM [sample B, mean of 2 tests]"
same,TGI,SNB-19 CNS,"> 100 µM [sample A, 1 test] and 3.09 µM [sample B, mean of 2 tests]"
same,GI50,SNB-75 CNS,"> 100 µM [sample A, 1 test] and 1.8 µM [sample B, mean of 2 tests]"
same,TGI,SNB-75 CNS,"> 100 µM [sample A, 1 test] and 3.82 µM [sample B, mean of 2 tests]"
same,GI50,SW-620 colon,"> 100 µM [sample A, 1 test] and 1.52 µM [sample B, mean of 2 tests]"
same,TGI,SW-620 colon,"> 100 µM [sample A, 1 test] and 3.45 µM [sample B, mean of 2 tests]"
same,GI50,U251 CNS,"> 100 µM [sample A, 1 test] and 1.86 µM [sample B, mean of 2 tests]"
same,TGI,U251 CNS,"> 100 µM [sample A, 1 test] and 3.34 µM [sample B, mean of 2 tests]"
same,GI50,UACC-257 melanoma,"> 100 µM [sample A, 1 test] and 1.73 µM [sample B, mean of 2 tests]"
same,TGI,UACC-257 melanoma,"> 100 µM [sample A, 1 test] and 3.33 µM [sample B, mean of 2 tests]"
same,GI50,UACC-62 melanoma,"> 100 µM [sample A, 1 test] and 1.57 µM [sample B, mean of 2 tests]"
same,TGI,UACC-62 melanoma,"> 100 µM [sample A, 1 test] and 3.02 µM [sample B, mean of 2 tests]"
CC(=O)Oc1ccc(C(c2ccc(OC(C)=O)cc2)c2ccccn2)cc1,TGI,BT-549 breast,349 nM [sample A] and 6.58 µM [sample B]
